Experiment [1] has as its target mCherry-LacR-NLS-VP16 (herpes simplex virus (HSV)) (UniProt P06492). The experiment in a line: recruitment to a LacO array by a LacR fusion (confocal fluorescence microscopy); A03-1 cells (256xLacO arrays) co-transfected with an mCherry-LacR fusion, held on the array, and a GFP- or YFP-tagged protein; green fluorescence overlapping with the red array scored; more than 20 cells in each combination, three independent experiments.

Amino acid sequences for entries named in this document (tags omitted).
UniProt P06492: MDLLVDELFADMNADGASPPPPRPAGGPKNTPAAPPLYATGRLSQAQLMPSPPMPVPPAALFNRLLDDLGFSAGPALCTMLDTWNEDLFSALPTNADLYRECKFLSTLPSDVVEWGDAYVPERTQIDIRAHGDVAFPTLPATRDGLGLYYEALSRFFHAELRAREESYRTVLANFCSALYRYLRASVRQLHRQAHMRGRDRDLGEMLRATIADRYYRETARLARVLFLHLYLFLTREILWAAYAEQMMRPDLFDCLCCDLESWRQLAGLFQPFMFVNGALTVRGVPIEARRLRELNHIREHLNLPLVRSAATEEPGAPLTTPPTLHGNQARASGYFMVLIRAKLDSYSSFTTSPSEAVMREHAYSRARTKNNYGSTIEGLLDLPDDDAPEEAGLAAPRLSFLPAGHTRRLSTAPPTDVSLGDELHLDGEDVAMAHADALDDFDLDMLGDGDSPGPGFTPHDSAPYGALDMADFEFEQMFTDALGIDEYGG
UniProt Q14839: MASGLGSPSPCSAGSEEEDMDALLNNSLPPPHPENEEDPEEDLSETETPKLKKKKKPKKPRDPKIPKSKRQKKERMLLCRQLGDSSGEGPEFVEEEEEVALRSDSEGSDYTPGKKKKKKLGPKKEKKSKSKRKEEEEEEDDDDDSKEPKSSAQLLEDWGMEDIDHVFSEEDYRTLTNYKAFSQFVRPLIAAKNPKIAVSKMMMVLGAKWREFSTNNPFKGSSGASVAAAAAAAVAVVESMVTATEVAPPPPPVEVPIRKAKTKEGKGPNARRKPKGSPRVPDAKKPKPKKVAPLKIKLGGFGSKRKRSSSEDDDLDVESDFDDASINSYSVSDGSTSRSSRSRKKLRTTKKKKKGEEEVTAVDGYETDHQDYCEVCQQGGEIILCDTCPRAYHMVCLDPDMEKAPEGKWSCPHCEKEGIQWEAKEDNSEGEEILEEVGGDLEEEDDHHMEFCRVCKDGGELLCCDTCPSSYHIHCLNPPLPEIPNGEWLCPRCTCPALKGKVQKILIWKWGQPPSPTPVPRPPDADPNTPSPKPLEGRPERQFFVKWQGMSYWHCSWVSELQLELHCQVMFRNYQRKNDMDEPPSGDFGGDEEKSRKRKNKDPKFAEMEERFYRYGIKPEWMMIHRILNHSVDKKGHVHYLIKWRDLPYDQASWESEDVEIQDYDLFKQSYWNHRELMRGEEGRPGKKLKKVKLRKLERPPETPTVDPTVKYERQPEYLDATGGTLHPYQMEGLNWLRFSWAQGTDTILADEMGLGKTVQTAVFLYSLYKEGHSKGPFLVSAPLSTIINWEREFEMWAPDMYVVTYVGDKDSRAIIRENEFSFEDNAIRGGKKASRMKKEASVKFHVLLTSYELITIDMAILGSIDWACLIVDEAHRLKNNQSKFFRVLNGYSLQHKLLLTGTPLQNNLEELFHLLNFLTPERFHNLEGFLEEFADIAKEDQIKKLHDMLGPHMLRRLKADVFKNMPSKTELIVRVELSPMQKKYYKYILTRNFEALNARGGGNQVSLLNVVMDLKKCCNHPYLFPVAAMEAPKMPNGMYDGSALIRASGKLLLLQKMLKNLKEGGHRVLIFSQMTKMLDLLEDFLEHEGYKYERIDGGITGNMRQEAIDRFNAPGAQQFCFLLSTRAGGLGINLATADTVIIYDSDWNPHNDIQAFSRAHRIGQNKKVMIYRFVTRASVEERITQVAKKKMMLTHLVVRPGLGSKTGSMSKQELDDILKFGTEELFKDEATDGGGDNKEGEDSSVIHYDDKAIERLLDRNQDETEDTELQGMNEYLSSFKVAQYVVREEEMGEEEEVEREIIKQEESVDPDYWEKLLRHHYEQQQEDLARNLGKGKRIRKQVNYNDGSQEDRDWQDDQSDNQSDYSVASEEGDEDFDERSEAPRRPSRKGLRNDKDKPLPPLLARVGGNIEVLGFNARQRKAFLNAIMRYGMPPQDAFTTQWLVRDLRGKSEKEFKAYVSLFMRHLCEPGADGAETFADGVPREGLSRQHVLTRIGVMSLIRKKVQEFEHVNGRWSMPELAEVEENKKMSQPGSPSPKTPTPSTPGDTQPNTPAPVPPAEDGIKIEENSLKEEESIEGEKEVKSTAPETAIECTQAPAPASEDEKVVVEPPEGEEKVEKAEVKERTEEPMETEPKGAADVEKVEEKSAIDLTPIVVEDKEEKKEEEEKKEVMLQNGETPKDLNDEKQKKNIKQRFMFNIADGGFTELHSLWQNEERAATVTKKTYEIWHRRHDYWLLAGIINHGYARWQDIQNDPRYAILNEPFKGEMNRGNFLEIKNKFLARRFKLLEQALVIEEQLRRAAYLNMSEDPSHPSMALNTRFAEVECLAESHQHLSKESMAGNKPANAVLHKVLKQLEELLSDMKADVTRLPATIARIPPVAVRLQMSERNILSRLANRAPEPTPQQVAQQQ
UniProt O60264: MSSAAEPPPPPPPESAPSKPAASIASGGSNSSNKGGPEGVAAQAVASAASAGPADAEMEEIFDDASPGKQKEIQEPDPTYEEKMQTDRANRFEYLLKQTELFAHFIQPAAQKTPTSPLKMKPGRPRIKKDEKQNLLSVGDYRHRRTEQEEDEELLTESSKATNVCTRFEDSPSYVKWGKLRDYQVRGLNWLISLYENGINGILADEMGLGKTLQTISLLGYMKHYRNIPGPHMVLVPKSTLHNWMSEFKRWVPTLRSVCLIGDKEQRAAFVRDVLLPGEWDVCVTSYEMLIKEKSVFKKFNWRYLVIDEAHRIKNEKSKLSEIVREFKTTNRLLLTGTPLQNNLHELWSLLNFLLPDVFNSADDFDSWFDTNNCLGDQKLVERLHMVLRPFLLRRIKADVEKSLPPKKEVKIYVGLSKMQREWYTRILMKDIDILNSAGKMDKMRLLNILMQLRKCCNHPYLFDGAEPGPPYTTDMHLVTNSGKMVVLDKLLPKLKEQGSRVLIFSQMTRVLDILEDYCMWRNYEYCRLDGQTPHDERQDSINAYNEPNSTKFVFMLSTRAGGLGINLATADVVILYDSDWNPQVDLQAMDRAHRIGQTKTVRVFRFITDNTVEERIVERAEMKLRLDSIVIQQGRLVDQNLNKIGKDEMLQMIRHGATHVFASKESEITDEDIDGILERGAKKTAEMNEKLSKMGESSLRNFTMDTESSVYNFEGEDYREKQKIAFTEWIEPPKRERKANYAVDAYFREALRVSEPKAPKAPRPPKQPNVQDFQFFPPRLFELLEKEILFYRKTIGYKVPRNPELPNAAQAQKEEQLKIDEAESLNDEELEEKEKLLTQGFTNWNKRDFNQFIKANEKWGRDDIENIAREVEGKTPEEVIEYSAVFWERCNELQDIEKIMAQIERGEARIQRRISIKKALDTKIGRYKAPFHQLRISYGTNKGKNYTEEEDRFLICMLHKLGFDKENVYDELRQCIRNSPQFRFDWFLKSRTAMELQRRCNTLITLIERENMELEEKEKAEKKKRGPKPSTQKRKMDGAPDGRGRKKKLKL
UniProt P51532: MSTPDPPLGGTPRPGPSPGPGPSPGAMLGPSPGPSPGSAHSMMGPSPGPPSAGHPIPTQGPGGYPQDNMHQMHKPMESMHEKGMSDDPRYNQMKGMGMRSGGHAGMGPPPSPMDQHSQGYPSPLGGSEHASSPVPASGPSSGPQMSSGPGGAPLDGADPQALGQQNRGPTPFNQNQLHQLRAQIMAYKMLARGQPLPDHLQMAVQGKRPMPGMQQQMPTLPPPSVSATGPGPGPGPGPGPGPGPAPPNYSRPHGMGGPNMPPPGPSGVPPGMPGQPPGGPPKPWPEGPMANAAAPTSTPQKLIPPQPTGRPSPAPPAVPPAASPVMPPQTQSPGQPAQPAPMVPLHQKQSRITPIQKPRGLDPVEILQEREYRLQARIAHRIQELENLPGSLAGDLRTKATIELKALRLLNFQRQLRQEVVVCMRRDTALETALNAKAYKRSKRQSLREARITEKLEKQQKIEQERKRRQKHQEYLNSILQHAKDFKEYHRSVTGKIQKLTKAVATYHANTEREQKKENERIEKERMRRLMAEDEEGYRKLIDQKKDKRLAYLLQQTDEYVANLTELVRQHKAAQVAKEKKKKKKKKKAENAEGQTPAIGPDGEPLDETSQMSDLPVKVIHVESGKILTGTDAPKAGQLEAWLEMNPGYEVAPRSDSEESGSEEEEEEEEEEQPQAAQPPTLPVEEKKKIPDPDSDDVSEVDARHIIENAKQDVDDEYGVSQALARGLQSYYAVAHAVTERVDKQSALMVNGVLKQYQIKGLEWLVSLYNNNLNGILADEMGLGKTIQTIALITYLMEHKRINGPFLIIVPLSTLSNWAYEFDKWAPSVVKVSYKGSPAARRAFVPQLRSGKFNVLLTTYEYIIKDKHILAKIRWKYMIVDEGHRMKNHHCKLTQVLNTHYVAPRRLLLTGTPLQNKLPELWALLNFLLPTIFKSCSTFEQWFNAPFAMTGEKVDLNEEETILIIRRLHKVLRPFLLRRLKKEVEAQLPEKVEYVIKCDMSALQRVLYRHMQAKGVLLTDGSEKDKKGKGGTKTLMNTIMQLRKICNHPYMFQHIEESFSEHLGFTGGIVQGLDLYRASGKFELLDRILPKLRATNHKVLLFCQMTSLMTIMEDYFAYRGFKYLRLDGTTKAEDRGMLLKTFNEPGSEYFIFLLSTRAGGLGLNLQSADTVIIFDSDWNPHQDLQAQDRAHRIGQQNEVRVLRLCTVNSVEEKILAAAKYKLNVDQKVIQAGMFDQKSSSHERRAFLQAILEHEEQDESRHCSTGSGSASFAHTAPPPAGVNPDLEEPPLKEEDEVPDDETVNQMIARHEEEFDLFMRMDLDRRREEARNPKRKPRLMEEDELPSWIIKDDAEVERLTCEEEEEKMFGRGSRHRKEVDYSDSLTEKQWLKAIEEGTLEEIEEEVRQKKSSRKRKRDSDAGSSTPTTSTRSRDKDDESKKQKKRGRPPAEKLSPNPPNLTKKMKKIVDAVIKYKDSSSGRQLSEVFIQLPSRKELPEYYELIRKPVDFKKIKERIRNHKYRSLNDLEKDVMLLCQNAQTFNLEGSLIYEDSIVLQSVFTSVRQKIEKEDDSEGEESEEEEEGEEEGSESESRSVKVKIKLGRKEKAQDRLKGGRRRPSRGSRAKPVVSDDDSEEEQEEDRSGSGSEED
UniProt Q92831: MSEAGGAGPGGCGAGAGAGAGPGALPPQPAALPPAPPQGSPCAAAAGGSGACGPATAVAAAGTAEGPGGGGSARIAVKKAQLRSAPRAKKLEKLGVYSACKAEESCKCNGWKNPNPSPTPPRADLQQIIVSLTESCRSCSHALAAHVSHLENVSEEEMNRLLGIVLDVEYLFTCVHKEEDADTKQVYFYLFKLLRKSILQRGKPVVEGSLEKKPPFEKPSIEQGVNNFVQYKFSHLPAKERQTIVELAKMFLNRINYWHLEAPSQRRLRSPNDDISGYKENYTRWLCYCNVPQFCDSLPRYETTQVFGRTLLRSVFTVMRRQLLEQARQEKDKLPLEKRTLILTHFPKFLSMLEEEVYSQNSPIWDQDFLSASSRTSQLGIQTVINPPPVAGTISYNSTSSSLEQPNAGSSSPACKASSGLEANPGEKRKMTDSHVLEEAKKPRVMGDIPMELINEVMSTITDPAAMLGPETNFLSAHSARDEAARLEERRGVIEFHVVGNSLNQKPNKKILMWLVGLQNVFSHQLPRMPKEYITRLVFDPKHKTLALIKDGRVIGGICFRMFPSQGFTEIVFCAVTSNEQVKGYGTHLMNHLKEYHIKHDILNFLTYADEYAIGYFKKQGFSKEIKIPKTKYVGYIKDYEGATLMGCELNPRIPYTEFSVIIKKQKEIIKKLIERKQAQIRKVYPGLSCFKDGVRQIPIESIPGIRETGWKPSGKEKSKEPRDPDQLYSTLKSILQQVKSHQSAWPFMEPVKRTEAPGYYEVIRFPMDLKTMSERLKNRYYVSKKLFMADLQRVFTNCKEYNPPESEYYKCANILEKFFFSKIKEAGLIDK

The target in experiment [2] is mCherry-LacR-LANA1 (p3xFLAG-CMV10-mCherry-LacR-LANA1) (Human herpesvirus 8 (KSHV)) (UniProt E5LC01). The description is as above.

The source of these data is paper PMC3646995.

No constants are given. Whether binding was seen depends on the method and setting. Some results given as binding are weak or reduced against the parent protein; the word gives no strength.

For the substance GFP-CHD4 (from UniProt Q14839 1-1912), the binding entry is recorded as “binds” in experiment [1] and “no binding” in experiment [2].

In the case of SNF2H-GFP (from UniProt O60264 1-1052), the binding entry in experiment [1] is on record as “binds”; in experiment [2] it was “no binding”. Consider YFP-BRG1 (from UniProt P51532 1-1647), for which the binding result in experiment [1] was “binds”. For “YFP-tagged BRD2 (from UniProt P25440 1-801)”, the binding entry in experiment [1] and in experiment [2] was “binds” throughout. Turning to “YFP-tagged GCN5 (from UniProt Q92830 1-837)”, the binding result in experiment [1] was “binds”; in experiment [2], “no binding”. Take “YFP-tagged p300 (from UniProt Q09472 1-2414)”: the binding entry in experiment [1] is “binds”.

Regarding “YFP-tagged pCAF (from UniProt Q92831 1-832)”, the binding entry is listed as “binds” in experiment [1] and “no binding” in experiment [2].
